This is one part of the list.
test system: PfAP2-HC AP2 domain (GST-tagged); test: gcPBM binding intensity (ln(normalized median fluorescence intensity)); higher = stronger DNA binding
In short: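 Binding intensity values are the highest Masliner-normalised natural-log median intensity among replicate spots of either probe orientation. The binding step lasted 1 h in 1× PBS with 1% milk, 0.2 mg/ml BSA, 0.5% salmon testes DNA and 0.03% Triton X-100, using GST-tagged P. falciparum DNA-binding domains expressed in E. coli on an Agilent 4 × 180k array of primer-extended double-stranded 36-bp intergenic genomic probes plus negative controls. Alexa488 anti-GST antibody and a 488 nm scan detected bound protein.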

Row | Sequence | gcPBM binding intensity (ln)
1 | TACTGATATAATATAACCGTTTATGTGTATTTTTTA [XGTACX_negctrl_site81] | 9.75
2 | TATAATAAAATTTTTACACACTTTAAAAAAAAAAAA [CACACA_site524] | 9.51
3 | TAATAAATAAAAATAGAACACACATATGTTTTTTTT [CACACA_site9185] | 9.72
4 | CAGTAGTATATACTATGTACATATTTATATTATATT [XGTACX_site4964] | 9.77
5 | AATATAAATAAACACACACACATATATATATATATT [CACACA_site2906] | 11
6 | AAAAAAAAAAAAAAATGTACATATATATAAATAAAA [XGTACX_site5574] | 9.66
7 | ATATTTATATATTGCACACAAAAAAAAAAAAAAATC [CACACA_site1629] | 9.88
8 | TATATATATATGTAATGTACATAAATTTTATACCTT [XGTACX_site6991] | 9.63
9 | AACAACCAAACGCACACACACAAAAAAAAAAATATA [CACACA_site6326] | 10.8
10 | TTATATGCATAAAAAGGTACACATATATAAATAAAT [XGTACX_site6894] | 9.78
11 | ACATTTAAAATTTATGCATGTGGTGTTTTGTATATA [TGCATGCA_site534] | 10.2
12 | TTTGTGTAGGTGTGTAGTACATATAACTTATAACAT [XGTACX_site7885] | 9.97
13 | TAATAAAATGTACACGCATGCAATAGAATATAAAGT [TGCATGCA_site905] | 10.1
14 | TATATTCATAATATTACACACGTTCATTTATTTTAA [CACACA_site2031] | 9.95
15 | GAGTGAAATATGCAAACACACACGAGAAAAATGTAT [CACACA_site3196] | 10.2
16 | TATGGTTTTAAAAAATGTACGCAAGTGCGTTAATTT [XGTACX_site3945] | 9.56
17 | TTATATATTTATATATGTACACATTTTACCATTTTT [XGTACX_site2142] | 9.79
18 | AAATTTATAAAGAACACACACATATAAATATAAATA [CACACA_site6174] | 10.2
19 | GTCCCTATAAGGGGAACACACATAAATGAATATATA [CACACA_site1024] | 9.58
20 | TTTTTTTGTTAAAAGGTGCTAATATATATAAGTGCT | 9.35
21 | TTATAATTGTAAGGTAGTACATATAAATCAAATAAT [XGTACX_site7190] | 9.54
22 | TATACAGATGGACACACACACATATATATATATATA [CACACA_site5272] | 11
23 | ATACAAACAATTATTTGTACATAAAATTTTTTTTTT [XGTACX_site90] | 9.52

Row | Sequence | gcPBM binding intensity (ln)
24 | ATGAATCTTTTAAAAAGTACATGTGAAAAAAATAAA [XGTACX_site49] | 9.63
25 | ATTTATTTCTTGTTAGTGCACTTTCTTTGGTAAAAT | 9.63
26 | TTAAAATGTTGTAACGTGCACATTTTGTGGAAATCA [GTGCAC_site9559] | 9.52
27 | ATATTTAGGAAAAATAGTACACATTTAAATAATAAT [XGTACX_site7989] | 9.7
28 | TAGGTGCCTTTTTTCACACACATGTCAACTAAATAT [CACACA_site2656] | 10.1
29 | AAATATATATATATATATATAAATATATACATATAT [TGCATGCA_negctrl_site517] | 9.57
30 | CTTTAAATTAATAAAAGTACATTATTTATATATTTT [XGTACX_site4808] | 9.51
31 | ATAACAAAAAAAAAGGTGCTACAAAATGAATAAAAA [GTGCAC_site9659] | 9.83
32 | ATATTTTATTTTAATACACACAAGTTATATAACCAC [CACACA_site6508] | 9.77
33 | TACATATATATATATGTACACACATTAATAAAAAAA [CACACA_site9058] | 9.82
34 | AATATAAATAATTATACACACTTAATATATATATAC [CACACA_site5533] | 9.77
35 | ATTTATGTTAATAAGTGTACAATAAATTTTTTTTAT [XGTACX_site7658] | 9.51
36 | AACATATATAAATACACACACATATATATATGAAAT [CACACA_site4312] | 10.2
37 | TATTAATTTAAATGGGTGCAAAACCTATATAAATAT | 9.51
38 | TTATTTTATTTTTGTGCACACTGATAAATTGAAAAG [CACACA_site2949] | 9.73
39 | TAAAAGTTCACCTGTACACACATATAAATATGTACA [CACACA_site6901] | 9.77
40 | CGTTTTCTATATCATTGTACATATTCATGTGTAAAT [XGTACX_site2741] | 9.85
41 | AACAGACGAAGACACACACACATATATATATATATA [CACACA_site1020] | 10.2
42 | ATTAATAAATTCAATTGTACTTGTTTATACATAAAA [XGTACX_site3733] | 9.35
43 | TTGTTTAAGTCACGAACACACATATATCATCAATTT [CACACA_site986] | 9.81
44 | GTTTGAATGGCGCACTGTACACATATATACATATAG [XGTACX_site8619] | 10
45 | ATTTATGAAAAATGTACACACATCAAATGCTTATAT [CACACA_site4068] | 9.94
46 | ACAAAATTATGTAGATGTACAGACATAGAAAGAGAT [XGTACX_site3096] | 10.3

Row | Sequence | gcPBM binding intensity (ln)
47 | TTATGGTGCAACATTATGCACACCGTTAAATAACTA [CACACA_site3846] | 9.48
48 | ATTTATTTTGTTGTTGTTTTTATTTGATTGTTTTAT [CACACA_negctrl_site1275] | 10.1
49 | TTATGTGTATAGGTTTGTACATAAAATGATGTATAG [XGTACX_site1401] | 9.68
50 | TCATGGAATATTTAAAGTACAAAAAGTGTTCTTTAC [XGTACX_site715] | 9.47
51 | TAGTCATATATATATGTACACACATATATATATTTA [CACACA_site8413] | 9.73
52 | TATATATATATGTGTACACATGTCGCATTTTTTTAT [CACACA_site4648] | 10.2
53 | GATATTATAAAATAAAAATAAATCATTTCTATTCAT [CACACA_negctrl_site334] | 9.49
54 | ACATATATGGAGCTTATACACACTTTTATATTTTAA [CACACA_site3854] | 9.67
55 | TTATCATATAATTATTGTACTAAAAAAAAAGCGAGT [XGTACX_site3086] | 9.62
56 | TTTTAAATATGCCATACACACTACTCTATAATAAAT [CACACA_site6987] | 9.7
57 | ATATATTATGGGTGTGCACACAATATTTATATGTTC [CACACA_site2270] | 10.4
58 | TTATAATAAATATATAAAAAAAAAAAAAAAAAAAAA [CACACA_negctrl_site1639] | 8.65
59 | TGATAGCACCTTATATGTACATATAATATATTATTA [XGTACX_site837] | 9.75
60 | TTTTCTTATAAATGAAGTACAAAAAAAAAATATATA [XGTACX_site1352] | 9.37
61 | AAGGTATAATATATTTGTACATATACATTTTTGAAT [XGTACX_site6493] | 9.73
62 | TGAAAAATGTAATGCTCACACATATATATATATATA [CACACA_site5213] | 9.62
63 | GATTTTAATGGGTGTACACATTTATTTATATAAAGT [CACACA_site5317] | 9.74
64 | TAATATGTTTATGGTAACATACAAAAATGTATATAT [GTGCAC_negctrl_site204] | 9.54
65 | TATTTTTTATTTTAAATCCTCTGATATTTAATTTGT [TGCATGCA_negctrl_site84] | 9.56
66 | TATCCCCTTGTCCATATTAATTGTGACATCATATAT [XGTACX_negctrl_site9] | 9.84
67 | ATGTGTATATATATGTGTACATAATTTGTGTTATTC [XGTACX_site2509] | 9.79
68 | GTGTCTTTTATTAAATGTACATATTCATAGATAAAA [XGTACX_site8578] | 9.44
69 | TTATTTTTTTGGAATTCACACACAAAAAAAAAAATA [CACACA_site8650] | 9.65

Row | Sequence | gcPBM binding intensity (ln)
70 | AATTGAGAAGTGTGTTGTACATAATGGCACATACCT [XGTACX_site1370] | 9.82
71 | TAGAATGAAAAAAAAGCATGCGGGCAAAAATTTTTA [TGCATGCA_site926] | 9.82
72 | ACCTTAAAAATAACTGCACACAAAAATAAATACCTT [CACACA_site8902] | 10.2
73 | ACGTAAACATGTAGAAGGCATTACACAATGGTATAC [TGCATGCA_negctrl_site512] | 9.89
74 | TTATGGTGCATGAAATCACACATTGATATATATGCT [CACACA_site5352] | 9.62
75 | ATATATATATATATATGTACATATATATATTATATT [XGTACX_site6303] | 9.66
76 | ACATTTAAATAATATGTGCACAGCTATATTTTCTTT [GTGCAC_site9562] | 9.85
77 | CTAATCGTGCACAACTGTACATTTGTCAAGGGCAAT [XGTACX_site8662] | 9.62
78 | ATAAAAATCTTTAGTAGTACATTATAAAAAACTATT [XGTACX_site5531] | 9.44
79 | TTTTTAATATATATCACACATATATATTTTTAATTA [CACACA_site6099] | 9.5
80 | ATGTGAACATTCAATGCACACGATGTAATTATACAT [CACACA_site15] | 9.86
81 | AACATATATTAGCTTACATGCAAAAAGTAAAAAAAT [TGCATGCA_site10] | 9.74
82 | AAAACATCAAAAATGTGTACATATATATATATATAT [XGTACX_site8884] | 9.64
83 | ATATATATATATGCATGTACATATTTATCTTTATAT [XGTACX_site232] | 10
84 | AATTTAAAACGGAGATGTACATATATAAATATATAC [XGTACX_site3723] | 9.79
85 | CGGCTATTTCTATATACATGCATTTAAAAAAAAAAT [TGCATGCA_site354] | 9.39
86 | AAAAAAAAAATGAGCACACATAAATAAAAACAAACA [CACACA_site1573] | 10.2
87 | ACCTATTTCAAACACACACACACACTAACAAACATA [CACACA_site8233] | 10.8
88 | AGTTATTTTAAATGTAGTACACAAAAGAAATATTAA [XGTACX_site4092] | 9.58
89 | CATAAATTAAAACACACACACACAAAAAAAAAAAAA [CACACA_site2262] | 11.6

From the supplement of paper PMC11417369
